From paper PMC12789033
No constants are given. Whether binding was seen depends on the method and setting. In cells and extracts the contact can be indirect. Some entries that bind do so weakly or less than the wild type.

Protein sequences, listed by entry. Tags and fused reporters are not part of them. Lines headed by an entry give the natural chain unless they say otherwise; changes in a name come on top. Chains listed by the source or under a name are the forms on record and can include a tag or linker. Residues count along the entry.
UniProt Q01196: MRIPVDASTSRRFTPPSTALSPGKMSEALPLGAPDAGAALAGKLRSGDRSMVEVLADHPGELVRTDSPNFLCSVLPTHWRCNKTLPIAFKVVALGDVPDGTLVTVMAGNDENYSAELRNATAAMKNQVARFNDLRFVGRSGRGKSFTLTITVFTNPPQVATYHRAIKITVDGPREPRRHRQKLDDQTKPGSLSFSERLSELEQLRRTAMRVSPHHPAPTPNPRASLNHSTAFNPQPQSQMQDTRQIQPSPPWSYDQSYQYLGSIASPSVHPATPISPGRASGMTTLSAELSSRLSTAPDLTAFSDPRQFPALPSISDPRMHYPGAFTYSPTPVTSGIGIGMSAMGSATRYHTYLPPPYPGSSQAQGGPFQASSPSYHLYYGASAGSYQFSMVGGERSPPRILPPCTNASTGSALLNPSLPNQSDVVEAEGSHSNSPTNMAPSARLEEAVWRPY
RUNX1-R320X (Q01196-8, form named): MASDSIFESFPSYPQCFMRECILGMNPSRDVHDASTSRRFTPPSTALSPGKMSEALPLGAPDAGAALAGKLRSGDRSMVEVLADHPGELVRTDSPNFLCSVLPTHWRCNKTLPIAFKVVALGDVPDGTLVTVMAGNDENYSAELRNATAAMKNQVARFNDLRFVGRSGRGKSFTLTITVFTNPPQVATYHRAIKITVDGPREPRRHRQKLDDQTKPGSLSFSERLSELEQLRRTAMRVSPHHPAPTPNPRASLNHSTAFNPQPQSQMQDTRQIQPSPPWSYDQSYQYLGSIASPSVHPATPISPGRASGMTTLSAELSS
FLAG-RUNX1-G365R (Q01196-8, form named): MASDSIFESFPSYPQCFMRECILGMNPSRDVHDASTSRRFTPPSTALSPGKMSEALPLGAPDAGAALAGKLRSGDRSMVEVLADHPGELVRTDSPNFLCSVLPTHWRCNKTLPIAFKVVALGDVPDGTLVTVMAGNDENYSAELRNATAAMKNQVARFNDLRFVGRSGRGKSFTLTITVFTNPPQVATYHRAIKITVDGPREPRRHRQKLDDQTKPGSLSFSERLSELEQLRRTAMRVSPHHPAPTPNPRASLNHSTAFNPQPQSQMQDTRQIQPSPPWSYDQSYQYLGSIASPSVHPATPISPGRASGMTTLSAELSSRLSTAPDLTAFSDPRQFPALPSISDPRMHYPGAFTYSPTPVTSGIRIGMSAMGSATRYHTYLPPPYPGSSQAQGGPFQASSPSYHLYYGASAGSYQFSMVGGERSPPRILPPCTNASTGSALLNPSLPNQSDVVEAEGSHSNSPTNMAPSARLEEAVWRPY
FLAG-RUNX1-R232X (Q01196-8, form named): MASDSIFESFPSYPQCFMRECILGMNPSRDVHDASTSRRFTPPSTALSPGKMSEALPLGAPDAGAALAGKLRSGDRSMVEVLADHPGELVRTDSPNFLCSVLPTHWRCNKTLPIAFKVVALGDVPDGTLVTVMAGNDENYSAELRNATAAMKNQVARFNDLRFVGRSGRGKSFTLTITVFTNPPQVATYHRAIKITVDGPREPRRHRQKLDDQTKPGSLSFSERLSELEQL
FLAG-RUNX1-Y287X (Q01196-8, form named): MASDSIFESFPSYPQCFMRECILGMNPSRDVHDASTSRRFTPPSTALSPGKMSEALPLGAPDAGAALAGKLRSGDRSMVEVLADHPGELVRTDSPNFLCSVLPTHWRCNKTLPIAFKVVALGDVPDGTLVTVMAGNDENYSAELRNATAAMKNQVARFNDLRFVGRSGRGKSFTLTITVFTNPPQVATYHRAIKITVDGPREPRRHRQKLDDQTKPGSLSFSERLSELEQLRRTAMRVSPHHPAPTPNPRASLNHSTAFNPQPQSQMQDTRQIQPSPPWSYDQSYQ
FLAG-RUNX1-Y407X (Q01196-8, form named): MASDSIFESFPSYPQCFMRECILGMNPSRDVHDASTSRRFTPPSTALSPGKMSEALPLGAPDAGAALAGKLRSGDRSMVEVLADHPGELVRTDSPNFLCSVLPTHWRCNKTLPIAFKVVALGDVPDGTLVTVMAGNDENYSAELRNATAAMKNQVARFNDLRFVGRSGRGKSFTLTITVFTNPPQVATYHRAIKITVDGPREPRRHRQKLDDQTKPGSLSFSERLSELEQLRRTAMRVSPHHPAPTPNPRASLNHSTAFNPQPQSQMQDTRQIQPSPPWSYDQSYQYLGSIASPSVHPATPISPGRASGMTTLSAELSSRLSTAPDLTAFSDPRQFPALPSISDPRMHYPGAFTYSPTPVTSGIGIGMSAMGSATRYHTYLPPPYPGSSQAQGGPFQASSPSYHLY
full length, wild type (WT) FLAG tagged RUNX1 (Q01196-8, form named): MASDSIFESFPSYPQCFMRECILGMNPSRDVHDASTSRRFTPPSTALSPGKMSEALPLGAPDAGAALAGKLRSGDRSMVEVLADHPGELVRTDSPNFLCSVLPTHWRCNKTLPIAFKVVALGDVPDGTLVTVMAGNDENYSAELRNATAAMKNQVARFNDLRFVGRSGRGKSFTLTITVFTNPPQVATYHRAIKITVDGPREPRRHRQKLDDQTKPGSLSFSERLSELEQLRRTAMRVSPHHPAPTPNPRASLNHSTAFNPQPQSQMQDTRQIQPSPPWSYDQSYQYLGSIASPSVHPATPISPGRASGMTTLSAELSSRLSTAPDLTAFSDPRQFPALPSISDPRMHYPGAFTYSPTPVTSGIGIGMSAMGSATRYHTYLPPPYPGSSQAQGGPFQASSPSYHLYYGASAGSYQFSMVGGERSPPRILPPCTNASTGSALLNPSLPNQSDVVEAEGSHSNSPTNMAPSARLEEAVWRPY
UniProt P26599: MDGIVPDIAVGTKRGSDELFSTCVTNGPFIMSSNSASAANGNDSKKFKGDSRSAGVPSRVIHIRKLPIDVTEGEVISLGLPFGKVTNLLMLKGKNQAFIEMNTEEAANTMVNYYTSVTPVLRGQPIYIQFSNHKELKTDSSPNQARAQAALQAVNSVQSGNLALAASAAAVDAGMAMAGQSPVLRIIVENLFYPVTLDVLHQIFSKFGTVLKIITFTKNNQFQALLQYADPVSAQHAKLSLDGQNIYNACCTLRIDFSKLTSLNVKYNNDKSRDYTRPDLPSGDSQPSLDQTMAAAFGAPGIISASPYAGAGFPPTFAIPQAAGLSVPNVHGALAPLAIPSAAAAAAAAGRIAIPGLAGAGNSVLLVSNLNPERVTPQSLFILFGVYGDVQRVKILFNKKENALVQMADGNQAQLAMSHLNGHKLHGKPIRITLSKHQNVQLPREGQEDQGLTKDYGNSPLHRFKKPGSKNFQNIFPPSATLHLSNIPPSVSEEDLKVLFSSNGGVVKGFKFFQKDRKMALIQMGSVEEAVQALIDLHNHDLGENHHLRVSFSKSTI
Myc-PTBP1-RRM1: residues 1-192 of P26599

How the values were obtained:
RUNX1-R320X = RUNX1-R320X (UniProt Q01196); assay: condition: also with a three-fold excess of the RUNX1-R320X plasmid; co-IP; HEK293T cells transfected with expression constructs; lysates incubated with primary antibodies and Protein A/G Dynabeads or with anti-FLAG M2 magnetic beads; western blot
FLAG-RUNX1-G365R = FLAG-RUNX1-G365R (UniProt Q01196); assay: co-IP; HEK293T cells transfected with expression constructs; lysates incubated with primary antibodies and Protein A/G Dynabeads or with anti-FLAG M2 magnetic beads; western blot
FLAG-RUNX1-R232X = FLAG-RUNX1-R232X (UniProt Q01196); assay: as above
FLAG-RUNX1-Y287X = FLAG-RUNX1-Y287X (UniProt Q01196); assay: as above
FLAG-RUNX1-Y407X = FLAG-RUNX1-Y407X (UniProt Q01196); assay: as above
[1] = molecular target: full length, wild type (WT) FLAG tagged RUNX1 (UniProt Q01196); assay: as above
[2] = molecular target: Runt-related transcription factor 1 (RUNX1), endogenous in human cells (human (endogenous in ME-1, MOLM-13, REH and other leukemia cell lines)) (UniProt Q01196); assay: co-IP; endogenous proteins; lysates of mouse CM+ cells, ME-1 and a panel of human AML and ALL cell lines immunoprecipitated with anti-RUNX1 or anti-IgG antibodies and blotted for PTBP1
[3] = molecular target: Runt-related transcription factor 1 (RUNX1), endogenous in human cells (human (endogenous in ME-1, MOLM-13, REH and other leukemia cell lines)) (UniProt Q01196); assay: proximity ligation; Duolink PLA with RUNX1 and PTBP1 antibodies, confocal imaging; MOLM-13 and REH cells (vehicle or entinostat for 48 h), mouse lin- bone marrow and CM+ cells, human CD34+ and primary AML cells
Myc tag WT PTBP1 = Myc tag WT PTBP1 (UniProt P26599); assay: co-IP; HEK293T cells transfected with expression constructs; lysates incubated with primary antibodies and Protein A/G Dynabeads or with anti-FLAG M2 magnetic beads; western blot
Myc-PTBP1-RRM1 = Myc-PTBP1-RRM1 (UniProt P26599); assay: as above

For “Myc tag WT PTBP1 (from UniProt P26599 1-557)”, the binding (RUNX1-R320X) was “no binding”, the binding (FLAG-RUNX1-G365R) was “binds” and the binding (FLAG-RUNX1-R232X) was “no binding”. For the same substance, the binding (FLAG-RUNX1-Y287X) was “no binding”, the binding (FLAG-RUNX1-Y407X) was “binds” and the binding [1] was “binds”.

In the case of “Polypyrimidine Tract Binding Protein 1 (PTBP1), endogenous in human cells (from UniProt P26599 1-557)”, the binding [2] is reported as “binds” and the binding [3] is reported as “binds”.

For “full length, wild type (WT) FLAG tagged RUNX1 (from UniProt Q01196-8 1-480)”, the binding (Myc tag WT PTBP1) was “binds” and the binding (Myc-PTBP1-RRM1) was “binds”.
